The values that follow come from the supplement of paper PMC11417369.

The other results are listed elsewhere or left out.

The test deals with PfAP2-HC AP2 domain (GST-tagged). In words: gcPBM binding intensity (ln(normalized median fluorescence intensity)); higher = stronger DNA binding. Summed up:
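The binding buffer was 1× PBS containing 1% milk, 0.2 mg/ml BSA, 0.5% salmon testes DNA and 0.03% Triton X-100. In it, GST-tagged P. falciparum DNA-binding domains expressed in E. coli were applied for 1 h to an Agilent 4 × 180k array of primer-extended double-stranded 36-bp intergenic genomic probes plus negative controls. Binding intensity, read with Alexa488 anti-GST antibody and a 488 nm scan, is the highest Masliner-normalised natural-log median intensity across replicate spots of either probe orientation.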
Consider “AAATTTTTTATTCTAATTAATATTTACACAATATAT [TGCATGCA_negctrl_site376]”, for which the “gcPBM binding intensity (ln)” value is 9.68. Turning to “TTCCATGTAGGACATGCATGCAGTTTTTAAAATATT [TGCATGCA_site481]”, the “gcPBM binding intensity (ln)” value was 9.67. The figure for “TATTATATAAATATACGTACATATACTAACCTTTTA [XGTACX_site6317]” is 9.57; for ATATATACTATAATAGTGCATTAAAAAAGTAAAAAT it is 9.81; for “TAAAGAGAAATATGTACATGCGAAAATGCCTTAAAT [TGCATGCA_site1050]” it is 9.67. In the case of “TGAACAAAAAAAAATTGTACTTTTTTTTTAATATTT [XGTACX_site7172]”, the “gcPBM binding intensity (ln)” value worked out at 9.39.

In the case of “TTTCTTCGAAATAGAACACTTGTGCAAAATAAGCAA [XGTACX_negctrl_site361]”, the “gcPBM binding intensity (ln)” value turned out to be 9.44. Then “AAAAAAAACAATCTCATACACACTAGGGATTAATTA [CACACA_site1776]”, with 9.82. Then “ATTTTTTTATAAAATTTTTATATAATTTATTATAAA [GTGCAC_negctrl_site96]”, with 9.3; and “AGACAATAATATAATCGTACAATAAATAAAATAAAA [XGTACX_site5231]”, with 10; and “AAATATAATATACAAAGTACTTTTTCATCTTATATA [XGTACX_site8771]”, with 9.62. In the case of “AAAATAATCTTTTGATTGCACTGTTACATTTTTTCT [GTGCAC_site9563]”, the “gcPBM binding intensity (ln)” value worked out at 9.75.

For “TTAAATGTTGGTTGTAGTACTCCATATGTTGTTTTA [XGTACX_site5312]”, the “gcPBM binding intensity (ln)” value amounted to 9.7. With “CTTATGTGCATACCTACACACTTACATATATATATA [CACACA_site8973]”, the “gcPBM binding intensity (ln)” value stood at 9.85. Take TTTGGAATATTAATTGTGCACTTAAAAAGTTAATTA: the “gcPBM binding intensity (ln)” value worked out at 9.47. Then “TATATATATATAAGATGTACCCTTTGAAATAATAAT [XGTACX_site7215]”, with 9.56; and “TGATACTGCAAAAAATATAAAAAAATAATAAAATAA [CACACA_negctrl_site791]”, with 9.5; and “AACAAAAGTAATTAAAAACAATACAAACATATGTTT [XGTACX_negctrl_site220]”, with 9.56.

For “TGGATAAAATAAAAATGTACTTAACATTTATATTTT [XGTACX_site712]”, the “gcPBM binding intensity (ln)” value came to 9.38. The figure for “AAATAATATAAACATACACACACACCGATATATATA [CACACA_site8945]” is 10.7; for “TTTCTAATTTATATCACACACATATAAATATAGTAA [CACACA_site6210]” it is 9.64. For “ATATATAGGTTCCCTTTTCTTTTTTTTTTTTTTTTT [CACACA_negctrl_site1159]”, the “gcPBM binding intensity (ln)” value is 9.39. Consider “ATCATTCAAAAATGCTGTACTAGGGGAAAACGTGTT [XGTACX_site7168]”, for which the “gcPBM binding intensity (ln)” value is 9.67.

With “ATGTATGAAAAAATGTGTACATAATTTTTTTTTTTT [XGTACX_site5444]”, the “gcPBM binding intensity (ln)” value turned out to be 9.72. Take “ATATATATATATATATGTACATATTTTATAACTGTA [XGTACX_site5395]”: the “gcPBM binding intensity (ln)” value was 10.1.

As to “ATTTATACATATAAACGTACATACATATATAATATT [XGTACX_site2969]”, the “gcPBM binding intensity (ln)” value came to 9.78. Take “AACATAAAACGTAATATATTACAAATATAAACAATC [CACACA_negctrl_site1675]”: the “gcPBM binding intensity (ln)” value was 10. “TTACCATTTGAAAATTCACACACTTTATTTTGTTAT [CACACA_site3799]”: the “gcPBM binding intensity (ln)” value was 10.1.

Take “TTTATATTAATTGATGTGCACTGAAATATTTGTCCA [GTGCAC_site9655]”: the “gcPBM binding intensity (ln)” value was found to be 9.59.

“ACCCTATAGGTAACTACACACCGCATATTGTTTACT [CACACA_site7436]”: the “gcPBM binding intensity (ln)” value was found to be 9.88.

Consider “TTAACTATGAATACATGTACATGAAAATATTTCAAT [XGTACX_site1069]”, for which the “gcPBM binding intensity (ln)” value was found to be 9.67. The figure for “GGCAAATTTATTATACCCACATACATACATACATAC [XGTACX_negctrl_site186]” is 9.69. “AAATTAATAAAAAATGGTACACAAAATGGATGTATA [XGTACX_site1561]”: the “gcPBM binding intensity (ln)” value is 9.78.

As for “AAAATTAAACAAAGTTGTACAAAATAATAATAAAAG [XGTACX_site7515]”, the “gcPBM binding intensity (ln)” value turned out to be 10.2. Then “TATGTATATTATATGACACACATTTATATATATATA [CACACA_site1167]”, with 9.72; and “AATAAATAAATAAATATATATATATATATATATATG [CACACA_negctrl_site899]”, with 9.71; and “TTTTGTTGATTTATATCTGTAGGGTTTAATATAACA [XGTACX_negctrl_site174]”, with 9.51.

On to “AAAAAGGATAAACACACACACACACCGATATATATA [CACACA_site8206]”, for which the “gcPBM binding intensity (ln)” value is 11. Then TTATTTTTGTGTAAGGTGCTATATATAATGTTTTTA, with 9.87; and “AAATGTGATATAAGTACACACACATATGTATATATA [CACACA_site8539]”, with 10.1; and “AACGAAATCATCAAGTGTACTAGTTTATTATTAATA [XGTACX_site6161]”, with 9.63. The figure for “CCATGTCACAATTTTTCACACACAAAATTTATATAC [CACACA_site8628]” is 10.4; for “TAATTAACAAACTATAGTACACAAAATACTTCATAT [XGTACX_site6375]” it is 9.7. The figure for “ATATACACACATAAGTGTACTTATATTTCATATATA [XGTACX_site8646]” is 9.82; for “AAAATAAAATAAAACACAAAAAAATAAAACAAAATA [CACACA_negctrl_site16]” it is 9.78; for “TATATATCCATGTGTACACACAAAAAAAAATAAAGT [CACACA_site7107]” it is 10.2. Consider “AAATATGTTTATATATGTACTTATAATTCAAAATAT [XGTACX_site2167]”, for which the “gcPBM binding intensity (ln)” value is 9.52.

Take “TCTATGCGTTTTAATAGTACATATAAAATTTATACA [XGTACX_site6986]”: the “gcPBM binding intensity (ln)” value came to 9.47. “AAATAAAATATATACATATATATATTATTTAGTAAT [XGTACX_negctrl_site375]”: the “gcPBM binding intensity (ln)” value was 9.55. Take “AAAAAAAAAAAACACACACACACACTAGTATATAAA [CACACA_site4783]”: the “gcPBM binding intensity (ln)” value was 10.6. “AAGAAAAAAAAAAATATATATACATATATATATATA [TGCATGCA_negctrl_site485]”: the “gcPBM binding intensity (ln)” value was 9.62. For the sequence “GGATATAACAAACACACACACACATATATATATATT [CACACA_site4141]”, the “gcPBM binding intensity (ln)” value amounted to 11.2. Then “AATACATATAATACAACACACAAGTAATATAAACCT [CACACA_site3597]”, with 10.2; and “TTTAAATGAAAAAAAGGTACACAATATTATTCTTAT [XGTACX_site8612]”, with 9.53; and “AATAAATAAATACATCTCAGTATATAAACAAACAAA [CACACA_negctrl_site1604]”, with 9.81. With “ATATTTAATTAAAAGAGTACTTAAATAAAATAAATG [XGTACX_site2149]”, the “gcPBM binding intensity (ln)” value was determined as 9.5. As to “AAGCCTTAAAAGGAAAGTACGTATATATATATATAT [XGTACX_site8559]”, the “gcPBM binding intensity (ln)” value came out at 9.64.

On to “ATGAAACATGTATATTGTACTCTGGATCAATTTAAT [XGTACX_site6413]”, for which the “gcPBM binding intensity (ln)” value was found to be 9.72. In the case of “AAATTTATTATATATACATGCAATCATAAATAATGT [TGCATGCA_site539]”, the “gcPBM binding intensity (ln)” value is 9.53. In the case of “AATGTATATATATATATATATATATATATTTATTTA [CACACA_negctrl_site113]”, the “gcPBM binding intensity (ln)” value worked out at 9.52.

Regarding “AAGAAAATAGAAAATACACACAGCAAACAGAGGAAT [CACACA_site3785]”, the “gcPBM binding intensity (ln)” value came to 10.3. The figure for “ATATATATATATTTATGTACATATATTTTTTTTTTT [XGTACX_site8558]” is 9.66. Then “TGTAGTCTGGAGAAAAGTACACAGTATCCGGTAACT [XGTACX_site4934]”, with 9.57; and “AATAATAAATCAAACTGTACATATATTTTCAATCTA [XGTACX_site3344]”, with 9.61; and “TTTTTTTTTTTGTTCACACATATATATATATATATA [CACACA_site5376]”, with 9.75. On to “TTATAAATAAAAAATACACACATATATTTATTTATA [CACACA_site6242]”, for which the “gcPBM binding intensity (ln)” value is 9.63.

As to “ATAATATATGAAAGTGGTACACAAAGGAAAATAAAA [XGTACX_site333]”, the “gcPBM binding intensity (ln)” value is 9.98. Regarding “GGTTATATATTTTTTGCACACCAAAAAAGAGAATAT [CACACA_site2731]”, the “gcPBM binding intensity (ln)” value worked out at 9.76. As to “ATCCTAATATTGAACTGTACCTTATATGTTATTATA [XGTACX_site1014]”, the “gcPBM binding intensity (ln)” value came out at 9.81. The figure for “ACGTGTATTTATTTAGTGCACTTTATATTTTTTCTT [GTGCAC_site9426]” is 10; for “TATATATATATATATACACACATATATACATATATA [CACACA_site4043]” it is 9.61. Then “TTCTTCTAATCCTTTTATCTCATTAAAAAAATATAA [CACACA_negctrl_site12]”, with 9.27; and “TATACATACACATACACACATACACCCATACACATA [CACACA_site1746]”, with 10.6; and “GAATGAATACGTTTTACACACTTGAATCTAATTTCA [CACACA_site6593]”, with 9.72. Regarding “ATTCTACTTTTATTTATTTATTTGTTTATATATATA [XGTACX_negctrl_site609]”, the “gcPBM binding intensity (ln)” value came to 9.99.

Turning to “TTTTTTATTCATGTAACACACATTTAATTATGAATT [CACACA_site2706]”, the “gcPBM binding intensity (ln)” value was determined as 9.8. On to “ATAAATACATATGTGTGTACACATTATATATATATA [XGTACX_site1486]”, for which the “gcPBM binding intensity (ln)” value was determined as 10.1. The figure for “GAAAAATTAAAACCTACACACACATTTAAAAAAAAA [CACACA_site9005]” is 11; for “TATATATTACATACATGTACCCAAAAAAAAAAAAAA [XGTACX_site1168]” it is 9.46; for “ATATATATATAATCATCACACATGCAGCCCTGATGA [CACACA_site5500]” it is 9.66. The figure for “TTGCATTAATTTATGTGTACATATAAATTTTTATTT [XGTACX_site3060]” is 9.89; for “TATAAATATAAATATACACACATATATATATATATA [CACACA_site1678]” it is 9.66.

Consider “CTTATAGGTCATTTCCTTGACCCCCTTTGTTGTACT [CACACA_negctrl_site551]”, for which the “gcPBM binding intensity (ln)” value stood at 9.5. “ATCAGTCGGCAGGACAGTACACAGTAGCCAGAAAAT [XGTACX_site2550]”: the “gcPBM binding intensity (ln)” value is 9.66.

As for “GTGTAGATATTGAAATGTACTCTCCATATAAAATAA [XGTACX_site4713]”, the “gcPBM binding intensity (ln)” value was found to be 9.33. In the case of “AAAGAATTTGCATATACACACAAAAAAATATATACA [CACACA_site386]”, the “gcPBM binding intensity (ln)” value is 10.1. Take “TTACGATACTTTAGGTGTACACAAATATACATGAAT [XGTACX_site4322]”: the “gcPBM binding intensity (ln)” value came out at 9.77. Regarding “ATATATATATATATATGTACTTATTTATTTATATTA [XGTACX_site4646]”, the “gcPBM binding intensity (ln)” value is 9.5.
